Changes are numbered by the printed parent chain.
T1: mouse ANGPTL7 protein (muANGPTL7-his, R&D Systems) (Mus musculus, UniProt Q8R1Q3)
T1 construct: His; purchased R&D Systems
T1 sequence (Q8R1Q3 22-337): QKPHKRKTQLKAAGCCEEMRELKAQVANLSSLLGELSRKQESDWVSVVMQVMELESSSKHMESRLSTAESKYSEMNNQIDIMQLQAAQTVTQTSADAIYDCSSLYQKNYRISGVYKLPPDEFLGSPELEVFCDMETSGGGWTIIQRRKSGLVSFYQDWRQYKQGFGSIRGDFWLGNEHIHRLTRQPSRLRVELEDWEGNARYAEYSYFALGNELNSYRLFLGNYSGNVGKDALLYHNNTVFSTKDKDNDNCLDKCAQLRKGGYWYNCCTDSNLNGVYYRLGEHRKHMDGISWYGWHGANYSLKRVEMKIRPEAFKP

B1: ATX-P-424 (antibody)
heavy: EVQLVESGGGLVKPGGSLRLSCAASGFTFSSYSMNWVRQAPGKGLEWVSSITSSSYIFYADSLKGRFTISRDNAKNSLFLQMNSLRAEDTAVYYCARDSNWGEAFDIWGQGTMVTVSSASTKGPSVFPLAPSSKSTSGGTAALGCLVKDYFPEPVTVSWNSGALTSGVHTFPAVLQSSGLYSLSSVVTVPSSSLGTQTYICNVNHKPSNTKVDKRV[in this place human IgG1 Fc with changes]
light: DIQMTQSPSSLSASVGDRVTITCRASQGIRNDLGWYQQKPGKAPKRLIYAASSLPSGVPSRFSGSGSGTEFTLTISSLQPEDFAIYYCLQHNSYPWTFGQGTKVEIKRTVAAPSVFIFPPSDEQLKSGTASVVCLLNNFYPREAKVQWKVDNALQSGNSQESVTEQDSKDSTYSLSSTLTLSKADYEKHKVYACEVTHQGLSSPVTKSFNRGEC
B2: ATX-P-425 (antibody)
heavy: EVQLVESGGGLVKPGGSLRLSCAASGFTFSTYSMNWVRQAPGKGLEWVSSITSSSSYMFYADSVMGRFTISRDNAKNSLYLQMNSLRAEDTADYYCARDSNWGEAFDIWGQGTMVTVSSASTKGPSVFPLAPSSKSTSGGTAALGCLVKDYFPEPVTVSWNSGALTSGVHTFPAVLQSSGLYSLSSVVTVPSSSLGTQTYICNVNHKPSNTKVDKRV[in this place human IgG1 Fc with changes]
light: B1 light with N31I, Y36F, I85T
B3: ATX-P-439 (antibody)
heavy: [in this place about 100 residues]VERDMVRGHYYYYMDVWGKGTTVTVSSASTKGPSVFPLAPSSKSTSGGTAALGCLVKDYFPEPVTVSWNSGALTSGVHTFPAVLQSSGLYSLSSVVTVPSSSLGTQTYICNVNHKPSNTKVDKRV[in this place human IgG1 Fc with changes]
light: DIQMTQSPSSVSASVGDRVTITCRASQGISSWLAWYQQKPGKAPKLLIYAASSLQSGVPSRFSGSGSGTDFTLTISSLQPEDFATYYCQQANSFPWTFGQGTKVDIKRTVAAPSVFIFPPSDEQLKSGTASVVCLLNNFYPREAKVQWKVDNALQSGNSQESVTEQDSKDSTYSLSSTLTLSKADYEKHKVYACEVTHQGLSSPVTKSFNRGEC
B4: ATX-P-442 (antibody)
heavy: QITLKESGPTLVKPTQTLTLTCTFSGFSLSTSGVGVGWIRQPPGKALEWLALIYWNDDKRYSPSLKSRLTITKDTSKNLVVLTMTNMDPVDTATYYCARDYGDYWFFDLWGRGTPVTVSSASTKGPSVFPLAPSSKSTSGGTAALGCLVKDYFPEPVTVSWNSGALTSGVHTFPAVLQSSGLYSLSSVVTVPSSSLGTQTYICNVNHKPSNTKVDKRV[in this place human IgG1 Fc with changes]
light: B3 light with V11L, W32Y, A91S, N92F, F94T, W96L, Q100G, V104L, D105E
B5: ATX-P-443 (antibody)
heavy: QVQLVQSGAEVKKPGASVKVSCKASGYTFTSYGISWVRQAPGQGLEWMGWIIAYNGNTNYAQKLQGRITMTTNTSTNTAYMELRSLRSDDTAVYYCGRDTGFSFDYWGQGTLVTVSSASTKGPSVFPLAPSSKSTSGGTAALGCLVKDYFPEPVTVSWNSGALTSGVHTFPAVLQSSGLYSLSSVVTVPSSSLGTQTYICNVNHKPSNTKVDKRV[in this place human IgG1 Fc with changes]
light: [in this place about 200 residues]

test system: not listed separately; experiment: Differential scanning fluorimetry (Protein Thermal Shift assay), thermal stability; type: physicochemical; details: DSF, melt 25° C. to 95° C., triplicate; in °C (unit assumed)
Description: Human ANGPTL7 monoclonal antibody differential scanning fluorimetry (DSF). […] Among the many techniques used to study the stability of mAbs, differential scanning fluorimetry (DSF) offers both excellent throughput and minimal material consumption. DSF measures the temperature of the protein unfolding transition (Tm) based on the change in fluorescence intensity of an environmentally sensitive dye.
Experiments were conducted to assess the thermal stability of the human ANGPTL7 monoclonal antibodies (“ATX” antibodies) of the present disclosure by determining the melting temperature. Thermal stability was assessed via differential scanning fluorimetry (DSF) utilizing the Protein Thermal Shift (PTS) assay from Applied Biosystems. The assay was performed according to the manufacturer's instruction. Briefly, the antibody to be evaluated was prepared in triplicate by mixing with Protein Thermal Shift dye and buffer; a real-time melt experiment from 25° C. to 95° C. was run on QuantStudio 3. Data was analyzed by using Protein Thermal Shift Software and the melting temperature (Tm) was calculated from the melt curve (Table 1).

Molecule	Tm 2 - Mean	Tm D - Mean
B1	73.14	62.69
B2	71.94	62.97
B3	83.42	62.77
B4	85.10	62.44
B5	–	62.45

molecular target: T1, mouse ANGPTL7 protein (muANGPTL7-his, R&D Systems); experiment: Octet HTX binding kinetics to muANGPTL7-his; details: at end of association; muANGPTL7-his @ 200 nM
Description: (§1) Experiments were also conducted to determine the reactivity and dissociation constants (KD) of anti-ANGPTL7 antibodies with the mouse ANGPTL7 protein. Binding experiments were performed on Octet HTX (ForteBio) in 1×PBS, pH 7.4, 0.1 mg/mi BSA, 0.05% Sodium Azide, and 0.02% Tween 20. Antibodies at a concentration of 50 nM were loaded on pre-hydrated AHC biosensors for 5 mA. The loaded sensors were dipped into monovalent muANGPTL7-his (R&D Systems) at a concentration of 200 nM for 5 min of association, followed by 10 min of dissociation. Results were analyzed with ForteBio Data Analysis 11.1 and fit to a 1:1 binding model to determine the monovalent KD. Responses (nm) at the end of association were also determined (Table 5).

Molecule	Response [nm]
B2	0.20

same assay, conditions: monovalent KD, 1:1 model; muANGPTL7-his @ 200 nM

Molecule	KD (M)
B1	N.B.
B2	P.F./L.R.
B3	P.F.
B4	P.F.
B5	N.B.

test system: rabbit ANGPTL7 protein (P66, rabbit ANGPTL7-his); experiment: Octet HTX binding kinetics to P66 (rabbit ANGPTL7-his); details: P66 @ 200 nM
Description: as §1, with “([…])” for “(KD)”, “rabbit” for “mouse”, “Rx PBS,” for “1×PBS,”, “min.” for “mA.”, “P66 (rabbit ANGPTL7-his)” for “muANGPTL7-his (R&D Systems)”, “6).” for “5).”

Molecule	kdis(1/8)
B1	2.44E−04 1/8
B2	9.79E−05 1/8
B3	2.98E−04 1/8
B4	4.87E−04 1/8
B5	N.B.

same assay, conditions: monovalent KD, 1:1 model; P66 @ 200 nM

Molecule	KD (M)
B5	N.B.

— patent US20250296996A1, “ANGIOPOIETIN-RELATED PROTEIN 7-SPECIFIC ANTIBODIES AND USES THEREOF” (Broadwing Bio, Inc., priority 2022, published 2025)
